Results reported in the supplement of paper PMC11417369.
± gives the standard deviation of the averaged measurements. This is one part of the list.

These sequences were tested on PfAP2-LT AP2 domain (GST-tagged) (assay: gcPBM binding intensity (ln(normalized median fluorescence intensity)); higher = stronger DNA binding).
Outline: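 After 1 h on an Agilent 4 × 180k array of primer-extended double-stranded 36-bp intergenic genomic probes and negative controls, bound GST-tagged P. falciparum DNA-binding domains were detected with Alexa488 anti-GST antibody and scanned at 488 nm. The domains had been expressed in E. coli, and binding took place in 1× PBS with 1% milk, 0.2 mg/ml BSA, 0.5% salmon testes DNA and 0.03% Triton X-100. Binding intensity is the highest Masliner-normalised natural-log median intensity across replicate spots of either probe orientation.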

In order of falling “gcPBM binding intensity (ln)” value:
1. CATACATACAGACACACACACATATAAATACATACA [CACACA_site6533]  9.88 ± 0.35
2. ACATATAAATATTGTGTGCACACACATAATATATAT  9.85 ± 0.36
3. AACACATACATATATACACACACAAAATAATAAAAT [CACACA_site8724]  9.8 ± 0.39
4. AAAAAAACATGAAACACACACAAATATATATATATA [CACACA_site1884]  9.53 ± 0.52
5. TTCTTTTTTCAACACACACACACAAGAAAATATATA [CACACA_site9019]  9.51 ± 0.16
6. ATATATATGTGAAAATCACACATTGCTTATCTGTAA [CACACA_site6044]  9.39 ± 0.35
7. TGAACAGACAAATACACACACTCAAAAAAAAAAAAG [CACACA_site7287]  9.35 ± 0.38
8. CAAAGAGAAATAAACACACACAAAATAAAGAAAAAA [CACACA_site2245]  9.34 ± 0.4
9. ATATATATTATTTCTACACACATATATATAATATGT [CACACA_site3374]  9.32 ± 0.42
10. ATATTAATATATGTGGCACACATGTGGAGTCCTATT [CACACA_site213]  9.27 ± 0.37
11. CTATAATAATAAAGTGAACACACACCGATAATATAT [CACACA_site9377]  9.26 ± 0.32
12. TATATATGTAAATGCACACATATGTGGATATACTTA [CACACA_site1699]  9.18 ± 0.4
13. GTGTAGTAAAATCGATGTACGTACAAATCAATTATT [XGTACX_site7662]  9.16 ± 0.41
14. TTGCATTTATTATACACACACAAAAAAATATATATA [CACACA_site238]  9.14 ± 0.27
15. CATTATGTTGTAAATGCACACATACAAATACATATA [CACACA_site8380]  9.14 ± 0.35
16. GTAAGTTGTGCATTCACACACATATAAATATAAATA [CACACA_site7536]  9.12 ± 0.38
17. GTGTTAAATGTTTACACACAAACTTGCAATAATTAT [CACACA_site3825]  9.07 ± 0.34
18. TATATAATATTTTTCACACACCATTTCCTTAAACAC [CACACA_site4862]  9.07 ± 0.4
19. AATTAAATTACTTATACACACATAAAATGCCTGTAT [CACACA_site6597]  9.03 ± 0.39
20. ATGACCCACTTTTCTGCACACATAAAAAATATATAA [CACACA_site8092]  9.01 ± 0.42
21. TTTTTTCTATTGAGCACACATATCACGATTAGTACT [CACACA_site313]  8.99 ± 0.41
22. GCACTCGTAAAAAGCACACATATAAAAACATTTATA [CACACA_site322]  8.98 ± 0.45
23. TGTATAACCTGTGTTACACACATTATGATTTATATA [CACACA_site525]  8.97 ± 0.26
24. TTATGATATATTTGTTGTACGCTTTTTTTATGAACT [XGTACX_site573]  8.97 ± 0.47
25. GCTCAATTTTTGGGTACACACAAATGTATAATAATA [CACACA_site2388]  8.89 ± 0.4
26. TTCCTGTTAATTACAACACACAATTCTTATTTTATG [CACACA_site6507]  8.89 ± 0.58
27. TATGTATTTAAGTTACCTGAACGTTCAGGTAAAATT [CACACA_negctrl_site1393]  8.82 ± 0.52
28. AAAATCTATAATATAACACACATATATTCTATATGG [CACACA_site7821]  8.82 ± 0.36
29. GCAGGCTAAAAAATTACACACGAAAAAAATGAATTT [CACACA_site3417]  8.79 ± 0.49
30. TAAAAAAAAAGAAGGGGTACATGGATAATATATAAA [XGTACX_site8386]  8.79 ± 0.47
31. GCGAGATGCTAAAATGCATGTTGGGCATTAGTTAAA [TGCATGCA_site586]  8.78 ± 0.45
32. TATCATTTCTAAAAAGGTACACATACATCATATATT [XGTACX_site3386]  8.78 ± 0.45
33. CATATATGGTTATATACATGCACCATTATATTATTA [TGCATGCA_site520]  8.71 ± 0.38
34. CAATGCTTTATCAATACATGCATATATATAGAAATA [TGCATGCA_site857]  8.67 ± 0.42
35. AAAAAAAAAAAAAAAACACACATATAGATTTATATA [CACACA_site7196]  8.65 ± 0.42
36. TTAACAAAACTTTTAACACACAAAAAAAAAAAAAAA [CACACA_site6947]  8.65 ± 0.38
37. CATTTTTACCGGTACTGTACATAAAAAAAAAAAAAG [XGTACX_site1548]  8.63 ± 0.36
38. ATTTTCAAATTCTATGCATGTGTATATTATAGATAA [TGCATGCA_site1003]  8.61 ± 0.36
39. AACAATATTATTGTTTGTACTCACATATATAATATA [XGTACX_site8063]  8.61 ± 0.41
40. AAAAAAATGAAGAAATGTACAAATTTCATTAATTTT [XGTACX_site354]  8.55 ± 0.59
41. TTATATGTTTTACAACGTACACAAAAAAAACTTATA [XGTACX_site4413]  8.48 ± 0.38
42. TATAATAATTCTTTGAGTACTTAAACATGTGAAATT [XGTACX_site955]  8.45 ± 0.39
43. GTAATTTTAAAGAAAAGTACACATTTATTAATTATT [XGTACX_site4468]  8.39 ± 0.38
44. TGTTTTATTATTTATAGTACATAAAAAAATATTGTA [XGTACX_site8963]  8.24 ± 0.35
